According to the supplement of paper PMC8728848:
Some of the results follow.

Key:
Assay in all cases: glycan array binding signal (z-score within array); higher = stronger binding
Conditions in all cases: glycan notation: IUPAC condensed, linker removed
Neu5Ac(a2-3)GalNAc = target: Neu5Ac(a2-3)GalNAc
Procedure, shortened: (§1)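 Glycan array data came from 3228 arrays in the Consortium for Functional Glycomics database, and only arrays with an available protein sequence were kept. Glycan names were put into IUPAC-condensed notation, and columns mapping to the same glycan were averaged. The binding signal is a within-array Z-score, averaged across arrays of one protein sequence run at different concentrations or buffers and across linkers. A negative Z-score can be read as non-binding.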

[1] = target: Neu5Ac(a2-3)GalNAc(b1-4)GlcNAc
Procedure, shortened: as §1

[2] = target: Neu5Ac(a2-3)[GalNAc(b1-4)]Gal(b1-4)Glc
Procedure, shortened: as §1

[3] = target: Neu5Ac(a2-3)[GalNAc(b1-4)]Gal(b1-4)GlcNAc
Procedure, shortened: as §1

[4] = target: Neu5Ac(a2-3)[GalNAc(b1-4)]Gal(b1-4)GlcNAc(b1-3)GalNAc
Procedure, shortened: as §1

[5] = target: Neu5Ac(a2-3)[Neu5Ac(a2-6)]GalNAc
Procedure, shortened: as §1

Neu5Ac(a2-6)Gal = target: Neu5Ac(a2-6)Gal
Procedure, shortened: as §1

[6] = target: Neu5Ac(a2-6)Gal(b1-3)GlcNAc(b1-3)[Gal(b1-4)GlcNAc(b1-6)]Gal(b1-4)Glc
Procedure, shortened: as §1

Neu5Ac(a2-6)Gal(b1-4)Glc = target: Neu5Ac(a2-6)Gal(b1-4)Glc
Procedure, shortened: as §1

[7] = target: Neu5Ac(a2-6)Gal(b1-4)GlcNAc
Procedure, shortened: as §1

[8] = target: Neu5Ac(a2-6)Gal(b1-4)GlcNAc(b1-2)Man
Procedure, shortened: as §1

[9] = target: Neu5Ac(a2-6)Gal(b1-4)GlcNAc(b1-2)Man(a1-3)Man(b1-4)GlcNAc(b1-4)GlcNAc
Procedure, shortened: as §1

[10] = target: Neu5Ac(a2-6)Gal(b1-4)GlcNAc(b1-2)Man(a1-3)[Gal(b1-4)GlcNAc(b1-2)Man(a1-6)]Man(b1-4)GlcNAc(b1-4)GlcNAc
Procedure, shortened: as §1

[11] = target: Neu5Ac(a2-6)Gal(b1-4)GlcNAc(b1-2)Man(a1-3)[GlcNAc(b1-4)][Neu5Ac(a2-6)Gal(b1-4)GlcNAc(b1-2)Man(a1-6)]Man(b1-4)GlcNAc(b1-4)GlcNAc
Procedure, shortened: as §1

[12] = target: Neu5Ac(a2-6)Gal(b1-4)GlcNAc(b1-2)Man(a1-3)[Man(a1-6)]Man(b1-4)GlcNAc(b1-4)GlcNAc
Procedure, shortened: as §1

[13] = target: Neu5Ac(a2-6)Gal(b1-4)GlcNAc(b1-2)Man(a1-3)[Neu5Ac(a2-3)Gal(b1-4)GlcNAc(b1-2)Man(a1-6)]Man(b1-4)GlcNAc(b1-4)GlcNAc
Procedure, shortened: as §1

[14] = target: Neu5Ac(a2-6)Gal(b1-4)GlcNAc(b1-2)Man(a1-3)[Neu5Ac(a2-6)Gal(b1-4)GlcNAc(b1-2)Man(a1-6)]Man(b1-4)GlcNAc(b1-4)GlcNAc
Procedure, shortened: as §1

[15] = target: Neu5Ac(a2-6)Gal(b1-4)GlcNAc(b1-2)Man(a1-3)[Neu5Ac(a2-6)Gal(b1-4)GlcNAc(b1-2)Man(a1-6)]Man(b1-4)GlcNAc(b1-4)[Fuc(a1-6)]GlcNAc
Procedure, shortened: as §1

[16] = target: Neu5Ac(a2-6)Gal(b1-4)GlcNAc(b1-2)Man(a1-6)Man(b1-4)GlcNAc(b1-4)GlcNAc
Procedure, shortened: as §1

[17] = target: Neu5Ac(a2-6)Gal(b1-4)GlcNAc(b1-2)Man(a1-6)[Gal(b1-4)GlcNAc(b1-2)Man(a1-3)]Man(b1-4)GlcNAc(b1-4)GlcNAc
Procedure, shortened: as §1

[18] = target: Neu5Ac(a2-6)Gal(b1-4)GlcNAc(b1-2)Man(a1-6)[GlcNAc(b1-2)Man(a1-3)]Man(b1-4)GlcNAc(b1-4)GlcNAc
Procedure, shortened: as §1

[19] = target: Neu5Ac(a2-6)Gal(b1-4)GlcNAc(b1-2)Man(a1-6)[Man(a1-3)]Man(b1-4)GlcNAc(b1-4)GlcNAc
Procedure, shortened: as §1

[20] = target: Neu5Ac(a2-6)Gal(b1-4)GlcNAc(b1-2)[Neu5Ac(a2-6)Gal(b1-4)GlcNAc(b1-4)]Man(a1-3)[GlcNAc(b1-4)][Neu5Ac(a2-6)Gal(b1-4)GlcNAc(b1-2)[Neu5Ac(a2-6)Gal(b1-4)GlcNAc(b1-6)]Man(a1-6)]Man(b1-4)GlcNAc(b1-4)GlcNAc
Procedure, shortened: as §1

[21] = target: Neu5Ac(a2-6)Gal(b1-4)GlcNAc(b1-2)[Neu5Ac(a2-6)Gal(b1-4)GlcNAc(b1-4)]Man(a1-3)[GlcNAc(b1-4)][Neu5Ac(a2-6)Gal(b1-4)GlcNAc(b1-4)Man(a1-6)]Man(b1-4)GlcNAc(b1-4)GlcNAc
Procedure, shortened: as §1

[22] = target: Neu5Ac(a2-6)Gal(b1-4)GlcNAc(b1-2)[Neu5Ac(a2-6)Gal(b1-4)GlcNAc(b1-6)]Man(a1-6)[Neu5Ac(a2-6)Gal(b1-4)GlcNAc(b1-2)Man(a1-3)][GlcNAc(b1-4)]Man(b1-4)GlcNAc(b1-4)GlcNAc
Procedure, shortened: as §1

[23] = target: Neu5Ac(a2-6)Gal(b1-4)GlcNAc(b1-3)Gal(b1-3)GlcNAc
Procedure, shortened: as §1

[24] = target: Neu5Ac(a2-6)Gal(b1-4)GlcNAc(b1-3)Gal(b1-4)GlcNAc
Procedure, shortened: as §1

[25] = target: Neu5Ac(a2-6)Gal(b1-4)GlcNAc(b1-3)Gal(b1-4)GlcNAc(b1-2)Man(a1-3)[Neu5Ac(a2-6)Gal(b1-4)GlcNAc(b1-3)Gal(b1-4)GlcNAc(b1-2)Man(a1-6)]GalNAc
Procedure, shortened: as §1

[26] = target: Neu5Ac(a2-6)Gal(b1-4)GlcNAc(b1-3)Gal(b1-4)GlcNAc(b1-3)Gal(b1-4)GlcNAc
Procedure, shortened: as §1

[27] = target: Neu5Ac(a2-6)Gal(b1-4)GlcNAc(b1-3)Gal(b1-4)GlcNAc(b1-3)Gal(b1-4)GlcNAc(b1-2)Man(a1-3)[Neu5Ac(a2-6)Gal(b1-4)GlcNAc(b1-3)Gal(b1-4)GlcNAc(b1-3)Gal(b1-4)GlcNAc(b1-2)Man(a1-6)]GalNAc
Procedure, shortened: as §1

[28] = target: Neu5Ac(a2-6)Gal(b1-4)GlcNAc(b1-3)Gal(b1-4)GlcNAc(b1-3)GalNAc
Procedure, shortened: as §1

[29] = target: Neu5Ac(a2-6)Gal(b1-4)GlcNAc(b1-3)Gal(b1-4)GlcNAc(b1-3)[Neu5Ac(a2-6)Gal(b1-4)GlcNAc(b1-3)Gal(b1-4)GlcNAc(b1-6)]GalNAc
Procedure, shortened: as §1

[30] = target: Neu5Ac(a2-6)Gal(b1-4)GlcNAc(b1-3)Gal(b1-4)GlcNAc(b1-6)[Gal(b1-3)]GalNAc
Procedure, shortened: as §1

[31] = target: Neu5Ac(a2-6)Gal(b1-4)GlcNAc(b1-3)Gal(b1-4)[Fuc(a1-3)]GlcNAc(b1-3)Gal(b1-4)[Fuc(a1-3)]GlcNAc
Procedure, shortened: as §1

[32] = target: Neu5Ac(a2-6)Gal(b1-4)GlcNAc(b1-3)GalNAc
Procedure, shortened: as §1

[33] = target: Neu5Ac(a2-6)Gal(b1-4)GlcNAc(b1-3)[Neu5Ac(a2-6)Gal(b1-4)GlcNAc(b1-6)]GalNAc
Procedure, shortened: as §1

[34] = target: Neu5Ac(a2-6)Gal(b1-4)GlcNAc(b1-6)GalNAc
Procedure, shortened: as §1

[35] = target: Neu5Ac(a2-6)Gal(b1-4)GlcNAc(b1-6)[Gal(b1-3)GlcNAc(b1-3)]Gal(b1-4)Glc
Procedure, shortened: as §1

[36] = target: Neu5Ac(a2-6)Gal(b1-4)GlcNAc(b1-6)[Gal(b1-3)]GalNAc
Procedure, shortened: as §1

[37] = target: Neu5Ac(a2-6)Gal(b1-4)GlcNAc6S
Procedure, shortened: as §1

Neu5Ac(a2-6)GalNAc = target: Neu5Ac(a2-6)GalNAc
Procedure, shortened: as §1

[38] = target: Neu5Ac(a2-6)GalNAc(b1-4)GlcNAc
Procedure, shortened: as §1

[39] = target: Neu5Ac(a2-6)GalNAc(b1-4)GlcNAc6S
Procedure, shortened: as §1

[40] = target: Neu5Ac(a2-6)GlcNAc(b1-4)GlcNAc
Procedure, shortened: as §1

[41] = target: Neu5Ac(a2-6)GlcNAc(b1-4)GlcNAc(b1-4)GlcNAc
Procedure, shortened: as §1

B1: LecB LY19 (Pseudomonas aeruginosa) (protein)
chain: MATQGVFTLPANTQFGVTAFANSAGTQTVNVQVNNETVATFTGQSTNNGIIGSKVLNSGGGGKVQILVSVNGRSSDLVSAQVILANELNFALVGSEDSTDNDYNDAVVVINWPLG
- glycan array binding signal (z-score) (Neu5Ac(a2-3)GalNAc): -0.428
- glycan array binding signal (z-score) [1]: -0.554
- glycan array binding signal (z-score) [2]: -0.524
- glycan array binding signal (z-score) [3]: -0.553
- glycan array binding signal (z-score) [4]: -0.553
- glycan array binding signal (z-score) [5]: -0.333
- glycan array binding signal (z-score) (Neu5Ac(a2-6)Gal): -0.552
- glycan array binding signal (z-score) [6]: -0.508
- glycan array binding signal (z-score) (Neu5Ac(a2-6)Gal(b1-4)Glc): -0.53
- glycan array binding signal (z-score) [7]: -0.527
- glycan array binding signal (z-score) [8]: -0.537
- glycan array binding signal (z-score) [9]: -0.516
- glycan array binding signal (z-score) [10]: -0.316
- glycan array binding signal (z-score) [11]: -0.543
- glycan array binding signal (z-score) [12]: -0.071
- glycan array binding signal (z-score) [13]: -0.539
- glycan array binding signal (z-score) [14]: -0.504
- glycan array binding signal (z-score) [15]: 0.475
- glycan array binding signal (z-score) [16]: -0.549
- glycan array binding signal (z-score) [17]: -0.558
- glycan array binding signal (z-score) [18]: -0.551
- glycan array binding signal (z-score) [19]: 0.735
- glycan array binding signal (z-score) [20]: -0.554
- glycan array binding signal (z-score) [21]: -0.546
- glycan array binding signal (z-score) [22]: -0.544
- glycan array binding signal (z-score) [23]: -0.553
- glycan array binding signal (z-score) [24]: -0.556
- glycan array binding signal (z-score) [25]: -0.473
- glycan array binding signal (z-score) [26]: -0.556
- glycan array binding signal (z-score) [27]: -0.493
- glycan array binding signal (z-score) [28]: -0.55
- glycan array binding signal (z-score) [29]: -0.53
- glycan array binding signal (z-score) [30]: -0.549
- glycan array binding signal (z-score) [31]: 2.08
- glycan array binding signal (z-score) [32]: -0.501
- glycan array binding signal (z-score) [33]: -0.543
- glycan array binding signal (z-score) [34]: -0.521
- glycan array binding signal (z-score) [35]: -0.413
- glycan array binding signal (z-score) [36]: -0.545
- glycan array binding signal (z-score) [37]: -0.548
- glycan array binding signal (z-score) (Neu5Ac(a2-6)GalNAc): -0.553
- glycan array binding signal (z-score) [38]: -0.55
- glycan array binding signal (z-score) [39]: -0.384
- glycan array binding signal (z-score) [40]: -0.542
- glycan array binding signal (z-score) [41]: -0.436
